Over roughly 33,000 sequences, “E-score (-0.5 to 0.5)” has its median near -0.043; the highest 2% begin near 0.37. The list shows a part of the results.
Target: T1, Upc2 (UniProt Q12151)
T1 sequence: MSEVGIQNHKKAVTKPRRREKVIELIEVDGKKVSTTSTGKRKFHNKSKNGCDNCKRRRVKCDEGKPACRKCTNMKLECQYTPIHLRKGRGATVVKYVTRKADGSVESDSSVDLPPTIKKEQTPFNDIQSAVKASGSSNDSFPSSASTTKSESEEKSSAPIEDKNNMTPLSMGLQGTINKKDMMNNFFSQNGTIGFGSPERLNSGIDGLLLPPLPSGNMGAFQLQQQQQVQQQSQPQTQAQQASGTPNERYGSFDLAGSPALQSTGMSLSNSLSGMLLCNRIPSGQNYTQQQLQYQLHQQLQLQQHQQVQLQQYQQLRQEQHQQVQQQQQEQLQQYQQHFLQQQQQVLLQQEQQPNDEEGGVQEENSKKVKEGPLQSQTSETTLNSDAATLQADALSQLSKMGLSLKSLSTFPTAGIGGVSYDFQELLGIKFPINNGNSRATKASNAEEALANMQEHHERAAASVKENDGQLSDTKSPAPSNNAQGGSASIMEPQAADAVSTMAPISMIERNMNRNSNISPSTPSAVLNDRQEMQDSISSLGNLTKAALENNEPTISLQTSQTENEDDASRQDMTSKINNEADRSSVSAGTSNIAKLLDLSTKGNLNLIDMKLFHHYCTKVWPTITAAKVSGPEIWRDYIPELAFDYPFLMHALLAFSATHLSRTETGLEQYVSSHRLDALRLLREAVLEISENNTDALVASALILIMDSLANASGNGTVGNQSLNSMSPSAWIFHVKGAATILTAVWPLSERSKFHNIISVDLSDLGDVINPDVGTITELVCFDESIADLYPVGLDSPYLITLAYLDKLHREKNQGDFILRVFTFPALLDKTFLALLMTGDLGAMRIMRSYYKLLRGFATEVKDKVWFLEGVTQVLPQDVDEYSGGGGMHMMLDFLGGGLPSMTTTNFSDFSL
Assay: PBM E-score (8-mer binding enrichment) (E-score (-0.5 to 0.5)); higher = stronger / more preferred TF binding; most listed sequences are background and not binding sites
Conditions: protein concentration: 200 nM; construct: GST-full length
Procedure, shortened: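 Using PURExpress in vitro transcription/translation, GST-tagged yeast transcription factors were made in full-length or DNA-binding-domain form. These were applied at about 100-200 nM to double-stranded universal all-10-mer Agilent arrays, and bound protein was detected with fluorescent anti-GST. Scans were normalised with masliner before the Universal PBM Analysis Suite assigned E-scores to ungapped eight-base words pooled with their reverse complements.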

Sequence | PBM E-score
CCATAGCA | -0.372
ATAAAACA | 0.13
ACCTCGTA | 0.462
CGCCACAC | -0.0158
GCAGGACA | -0.103
CCTCGCTA | 0.22
CTGTTACA | -0.0866
ATATAAGA | 0.22
ACCCGTTA | 0.277
AAATAAGA | 0.0703
AAGCGCTG | 0.0818
CTCAAGGA | -0.354
TCAGCCGA | -0.0752
ACCCATAG | -0.228
AAGACCTC | -0.232
AGTGATAA | -0.004
AAGATTCG | 0.17
GCTTAAGA | 0.114
AAAGCAAG | 0.133
AGCTAACG | 0.163
CAATGCTA | -0.0867
CGTTTGCA | 0.395
CCGCTCGC | 0.113
CAAGGAAC | 0.121
AGGCCAAA | -0.0735

Sequence | PBM E-score
CTGTCGAA | -0.181
CTTCCAAA | -0.0564
CGGAGCTC | -0.124
AACAAATG | 0.0774
CCTTTTAC | 0.207
ACTTAGAT | 0.139
GGACATAC | 0.2
ATGCAGAC | -0.0838
TCAGGCAA | -0.146
CCCATGAA | -0.193
CAGCTAGA | -0.0195
AACGTTTG | 0.157
CATAGAAC | -0.157
AGATAACA | -0.175
GTGCTCTA | -0.191
CCCGCGAA | -0.0517
ATCGTAAG | 0.354
ACTGCCGC | -0.14
AGTAAAAC | 0.0433
CGTGCATC | -0.077
GAAGATCC | -0.273
AGGACAGG | -0.11
CAAAAATG | -0.0709
AAAGGTTG | -0.256
CCTGACGC | -0.347

Sequence | PBM E-score
AACTATGG | -0.138
GCTAGGCC | -0.286
AGTATTAT | -0.0313
AGAACTTC | -0.0685
CTATTTGA | -0.103
TAATGTCA | -0.164
GAAGATAC | 0.0367
CCCACCCA | -0.0953
AACTAGGA | -0.225
AGATTGTC | -0.00514
GGAGTCAA | -0.104
ACCAGAGA | -0.103
GGCGAATA | -0.0409
GCACTAAA | 0.177
GTTAACGA | 0.442
ACTGGACG | -0.12
CAGCTGGA | -0.0748
CTATCACC | -0.0181
AGATCCCA | -0.235
AGACGCTC | -0.183
CTTCTTGA | -0.125
CTTTACAA | -0.154
AAATACGT | 0.109
CTCTGCGA | 0.0808
CTCGTTAC | 0.36

Sequence | PBM E-score
TATGTCGA | 0.143
AAGGCTCC | -0.189
CCGACCCC | -0.175
CTTGTCTA | -0.148
AACGAACG | 0.419
AACTAGTG | -0.112
CGTCCGAG | 0.0755
CAATCCTA | -0.0854
AGTCGGGG | -0.132
AGACCTAG | -0.0835
CCCCTAGC | -0.319
GGCACGCA | 0.0534
ACAGTAAC | -0.124
ACGCGGGG | 0.0304
CACTGCTA | 0.0415
CGACGAGC | 0.0758
ACTGGGGC | -0.225
CCTTAAGC | -0.0529
TCGGAGAA | -0.156
AGGACATG | -0.0176
TCGAGCAA | -0.0394
GGCTGACC | -0.0956
ATAGGCGA | 0.11
GATAACCA | 0.0331
AACAATCG | 0.0768

Sequence | PBM E-score
CGGTCTAC | 0.0369
CGTTAGTA | 0.106
CAGCGTTA | 0.0166
TAAATAAA | 0.191
CGGACTTA | -0.21
GACAGGTC | -0.227
GCAGGCGA | -0.275
CATCTACC | -0.0585
ATAGTGCG | 0.0754
AACACGGA | -0.0612
ACTAAGTA | -0.101
AAGGGCGC | -0.0994
CCGGCCAC | -0.272
AGGTATGC | -0.00888
CAATTCCG | -0.254
GACAGACC | 0.043
AACAGACA | -0.101
AGATGCAA | -0.149
AACAGCAG | -0.0476
ATGCGCTC | -0.014
ACACCTTA | 0.00147
TGATTCCA | -0.175
ACATAAGA | 0.0979
ATTGTCGA | -0.197
AATGCAGG | -0.141

Sequence | PBM E-score
CACATGTC | -0.0847
ATCACGAC | 0.0267
CTGATCAG | -0.204
AACAATAG | -0.154
CGTATCAA | 0.37
GCACTTGA | -0.119
AGATTCTC | -0.0164
AGTGTACC | -0.0597
CCGATGAA | 0.0307
TAGCCCGA | -0.167
CTGGTTCC | -0.212
GCCGGCGC | -0.134
CTTTTTTC | -0.0358
CAGGAGCC | -0.0622
AGTGCGCA | -0.133
ACTACGAT | 0.16
ATGCGCCG | -0.096
GTGGCACA | -0.248
AGGTTGGC | -0.125
ATTAAAAC | 0.175
GCGCCAAC | -0.0723
CGCGGGAG | -0.105
TCTTCTCA | -0.144
ACCAGAGT | -0.0167
AGAGTCCT | -0.311

Sequence | PBM E-score
GATCCTGC | 0.0718
CCCGAAGC | -0.0468
TACTGCCA | -0.0597
CACTTATG | -0.0747
GACCCAGA | 0.00127
CGTGGTGC | -0.21
ATTGGTGA | -0.199
GGATGAGA | -0.204
GAGTTCAA | 0.0381
CCACATGC | -0.155
ATTACACA | -0.0135
AGGCGATC | 0.00039
AAGATCCC | -0.126
ACCGCGAT | 0.0631
AGGAATCG | 0.0922
CCGAGCGG | 0.166
AGCCTCAG | -0.109
GTCATTTA | -0.204
CATGGTGC | -0.107
ACTTAGGG | -0.125
CGGTTTGC | 0.189
AAAGATTG | -0.243

From the supplement of paper PMC3334620
